Data published in the supplement of paper PMC3334620.
Over roughly 33,000 sequences, “E-score (-0.5 to 0.5)” has its median near -0.043; the highest 2% begin near 0.37. Some of the results follow.

target: T1, Upc2 (UniProt Q12151); assay: PBM E-score (8-mer binding enrichment) (E-score (-0.5 to 0.5)); higher = stronger / more preferred TF binding; most listed sequences are background and not binding sites; conditions: protein concentration: 200 nM; construct: GST-full length
T1 sequence: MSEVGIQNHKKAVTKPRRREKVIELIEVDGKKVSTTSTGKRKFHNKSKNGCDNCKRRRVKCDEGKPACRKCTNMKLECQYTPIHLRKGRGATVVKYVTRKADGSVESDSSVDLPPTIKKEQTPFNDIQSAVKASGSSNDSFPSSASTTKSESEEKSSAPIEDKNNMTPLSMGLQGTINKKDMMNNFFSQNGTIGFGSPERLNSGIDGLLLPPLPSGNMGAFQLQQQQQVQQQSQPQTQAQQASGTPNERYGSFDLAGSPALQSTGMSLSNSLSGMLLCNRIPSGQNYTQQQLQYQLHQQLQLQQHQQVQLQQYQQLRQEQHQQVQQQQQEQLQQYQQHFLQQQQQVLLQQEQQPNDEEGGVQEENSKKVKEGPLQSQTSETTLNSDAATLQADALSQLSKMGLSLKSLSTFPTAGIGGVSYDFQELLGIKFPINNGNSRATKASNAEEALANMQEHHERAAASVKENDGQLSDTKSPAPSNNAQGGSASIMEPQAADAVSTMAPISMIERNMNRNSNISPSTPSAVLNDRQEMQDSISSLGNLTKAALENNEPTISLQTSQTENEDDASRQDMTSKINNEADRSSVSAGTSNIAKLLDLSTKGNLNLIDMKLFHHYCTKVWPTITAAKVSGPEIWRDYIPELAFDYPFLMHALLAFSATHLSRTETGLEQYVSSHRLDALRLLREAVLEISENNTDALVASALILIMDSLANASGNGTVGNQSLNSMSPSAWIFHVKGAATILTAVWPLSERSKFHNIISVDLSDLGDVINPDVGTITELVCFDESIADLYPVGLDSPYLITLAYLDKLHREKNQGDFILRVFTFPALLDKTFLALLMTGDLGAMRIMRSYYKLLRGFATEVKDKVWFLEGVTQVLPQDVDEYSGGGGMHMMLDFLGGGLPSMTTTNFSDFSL
Outline: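 Full-length yeast transcription factors or their DNA-binding domains, GST-tagged and expressed with PURExpress, were applied at about 100-200 nM to universal all-10-mer Agilent arrays. These arrays had been made double-stranded by primer extension on fresh or once-stripped slides. Detection used fluorescent anti-GST, normalisation used masliner, and E-scores for ungapped eight-base words pooled with reverse complements came from the Universal PBM Analysis Suite.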

Sequence | PBM E-score
TGGAAAAA | 0.0868
CGACCAAG | 0.0998
AGTACTAG | -0.0339
TATCCGCA | 0.226
GAGAATCA | -0.137
ATTCCAGA | -0.0409
CATGGGGA | -0.272
GATGTCAA | -0.0367
GCTGAAGC | -0.163
CTCTCTTC | -0.29
AAGCTCAA | -0.0159
AACTTTAG | 0.0283
CGAGGCGA | 0.0313
AGCCCTCC | -0.0746
AATACACG | 0.126
AGGCGGAC | -0.0868
CGACATGC | 0.0981
AGTTACGA | 0.383
GACACGTC | -0.205
CTTCAAGA | -0.203
GATATTAA | 0.00575
AGCGAGCG | 0.281
GATCTTAC | 0.111
GCACGCGC | 0.00061
ACGAGATC | 0.408

Sequence | PBM E-score
AGGCTTCG | 0.0418
ACGCTCCG | 0.0452
GATCTTAA | 0.159
ATGTATAG | 0.129
CACCGGCA | -0.0457
CTGCGTCA | -0.123
AGTTCGTC | 0.0871
ATTGCCTA | -0.276
CGCGTCCC | -0.159
ACTGGGCT | -0.206
AGTAATTG | 0.0525
GTTAAGGA | 0.0466
AGACTGAC | -0.114
CTTGCCTA | -0.125
AAGAGGGT | -0.118
AGTCAATC | 0.00281
AGTGCCTA | -0.172
ACTGCGAG | 0.037
AATTTGGG | -0.129
ATCCCAAT | -0.148
AGAGCGCA | -0.173
AACTCGAC | -0.00343
ACCCGATC | 0.0305
AAGTGCAG | -0.132
CACCTAGG | -0.103

Sequence | PBM E-score
CTAGCATC | 0.00648
ACAACTGT | -0.126
CGGGACGC | -0.0333
AAGAGCTC | -0.0721
ACGTGCAC | 0.218
GCCTGAGC | -0.122
ACTACGGG | -0.151
GTGGCAAA | -0.134
ATGGGGGG | -0.336
CTCTCTAA | -0.231
ATCTCCTA | -0.333
CTGAGCCC | -0.0993
ACTACACC | -0.125
AGGTCTCC | -0.0721
CAATAGAA | -0.241
CTTTCGGA | -0.11
GAGCATTA | -0.125
AGGAACGC | 0.114
AATTCGGG | 0.0687
AAAGCCAG | -0.121
CTGAGGAA | -0.0683
CTGCTATC | -0.0676
GGTCTTGA | -0.0576
AGGGTTAA | -0.0756
ATAGTATC | 0.0546

Sequence | PBM E-score
AATGGACC | 0.0562
AGCAAGTA | -0.115
ACCTGATG | -0.0631
AAAACGCA | 0.0539
ACATTTGC | 0.0199
ACAGAATG | -0.0244
ACAACCCG | 0.206
GGCCGCTA | -0.0834
CTTTGTAC | 0.192
ATACCCAT | 0.0396
AACACGTG | -0.0685
ACTGCCAG | -0.26
GGTCTTAA | 0.0873
CTAGGCCA | -0.2
TCTTGAAA | 0.0803
CATGACAA | -0.0931
GAGAATAC | 0.11
CCGCATGA | -0.165
CCCCGTCC | -0.117
AAGCCGCG | -0.0444
CAGCCAGG | -0.105
ACGCCATA | 0.0126
CCTCTAGC | -0.25
ACACTACT | 0.0694
CGAATCCC | 0.0587

Sequence | PBM E-score
AAATTCAA | 0.0941
CATCCTAA | 0.0199
TGACTTAA | 0.029
ACACAAGC | -0.00621
CACCATAG | -0.304
CATAACAC | 0.0616
CCAACCTA | -0.218
GGCCAAAA | -0.0838
AGATGCGG | -0.196
ACCGTAGA | 0.178
AACCACCG | -0.0167
ACGCGGAA | 0.109
CTATCGAA | -0.056
GTACTTCA | 0.169
AGCACTCA | -0.0177
GACATTTA | -0.123
CATCATCA | -0.231
AAGGGCGG | -0.201
CGTACACG | 0.423
CATGCAAA | 0.151
CATCTCAG | -0.122
ACGACACC | 0.374
CAGCTGCG | 0.0645
ACCCGGTG | -0.0394
CAAATGGC | -0.173

Sequence | PBM E-score
ACGATGAA | 0.312
CGTTGGAC | -0.184
AAAGAAGA | -0.103
ACGGTGGC | 0.0835
CCGGTATC | -0.105
AACGCAGG | 0.02
GACTTGGA | -0.105
CGACGAAA | 0.23
CGGTCTGC | -0.0217
AATTCCAT | -0.117
ATTGTCCC | -0.263
GATAACCC | -0.111
AGTTAAAA | 0.102
GCCCCTAC | -0.096
GGATAGCC | 0.178
ACAAGGTA | 0.104
CCGAACAC | -0.051
GTAGTCAA | 0.121
CGGGAACC | -0.12
AAGTGTTC | 0.0334
AAGTATGA | 0.0389
TCGTAAGA | 0.399
GTGTAACA | -0.158
AAGAGAAT | -0.0543
ATTGCTAC | 0.206

Sequence | PBM E-score
CTCTGAGC | -0.0489
AAAGGACC | -0.0923
AACACTCG | 0.208
GGTCCACA | -0.166
CTGGCCCC | -0.124
CTACTGGC | -0.171
CTCCAGCA | -0.0247
ATGACCAA | -0.0518
AATAGCGC | -0.0328
AAATGAGG | -0.278
ATGTCGAC | 0.00622
GCCTCGCC | -0.0504
GTCATGAA | 0.00612
AATGTGAT | -0.0846
CTCGTCCA | -0.0829
AAGATCGA | -0.0207
AGGGTGTA | 0.00084
AGGCTACT | -0.128
GATTCACC | -0.129
GTCGACCA | 0.0671
AGCGCACC | -0.0506
ACGGTCGC | 0.131
